The whole screen tested about 46,000 compounds, of which about 60 (0.1%) were called active. Another 3% or so got no clear call; they are omitted. Calls follow the shape of the dose curve; as a rule, active = well fitted inhibition curve with a large enough effect; inconclusive = small, poorly fitted or top-dose-only effect; inactive = no such curve, though single readings can be large or run the other way. Some of the results follow.

The experiment in a line: Primary qHTS assay for Inhibitors of ovarian cancer metastasis using an organotypic tumor microenvironment (TME) model. Also: nearly all actives have a fitted effect of over 65% in size.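 As to activity change, negative = inhibition: plate controls were DMSO wells for no effect and tomatine positive control wells for full effect.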 The following applies: SKOV3ip1-GFP adhesion/invasion on 3D omental model, fluorescence; series mostly up to 45.8 µM; activity change, negative = inhibition: at the top concentration. Put shortly:
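qHTS, 4-pt dose (0.36-46 umol/L); SKOV3ip1-GFP, 1,200 cells/well, no FBS; primary omental fibroblast/mesothelial co-culture 48 h pre-grown; 2 h RT + 16 h 37 C; PBS wash, 4% PFA; GFP count 488/509 nm.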
In general terms: Quantitative high-throughput screening tests each substance at several concentrations.
On to `CN(Cc1ccccc1)c1ccc2cc(S(=O)(=O)N3CCCCC3)ccc2n1`, for which the “activity change, negative = inhibition” value is inactive: 0.323%.
Turning to `CCOc1ccc(NC(=O)CCc2c(C)nc3c4c(C)cc(C)nc4nn3c2C)cc1`, the “activity change, negative = inhibition” value was inactive: -2.73%.
`CC(NCc1ccc2c(c1)n(C)c(=O)n2C)c1ccccc1` (configuration not stated): the “activity change, negative = inhibition” value was inactive: 0.243%.
As to `COc1cc(NC(=O)CSc2cc(=O)n(C)c3ccccc23)cc(OC)c1OC`, the result was inactive.
Consider `NC(=O)c1ccc(I)c([N+](=O)[O-])c1`, for which the “activity change, negative = inhibition” value was inactive: -6.91%.
Same read-out and setting: for `c1ccc(-c2oc3ncnc(NC[C@@H]4CCCO4)c3c2-c2ccccc2)cc1` the value was inactive: -0.781%.
Take `Cc1c(C(=O)N(C)Cc2ccccc2)sc2nc(-c3ccc(F)cc3)cn12`: the compound was called inactive.
Turning to `COc1cccc(-c2cc(C(=O)NCc3ccccc3)no2)c1`, the “activity change, negative = inhibition” value was inactive: 1.88%.
Regarding `COc1ccc(N2CCN(C(=O)c3ccc4c(c3)CCN4S(=O)(=O)c3ccccc3)CC2)cc1`, the “activity change, negative = inhibition” value is inactive: -7.7%.
For the compound `Cc1noc2ncnc(NCCc3ccccc3)c12`, the “activity change, negative = inhibition” value was inactive: 8.47%.
In the case of `CCC12CN3CC(CC)(CN(C1)C3c1c[nH]c3ccccc13)C2=O` (configuration not stated), the “activity change, negative = inhibition” value was inactive: -4.07%.
Take `Cc1cc(C)n2nc(CNC(=O)c3cccc(N(C)C)c3)nc2n1`: the “activity change, negative = inhibition” value is inactive: -2.73%.
Regarding `Cc1ccc(-c2cn3c(n2)sc2cc(C(=O)NC4CCCCCC4)ccc23)cc1`, the “activity change, negative = inhibition” value is inactive: 15.6%.
Turning to `COCCCNC(=O)C1CCN(Cc2cc3ccccc3n2Cc2cccc(Cl)c2)CC1`, the “activity change, negative = inhibition” value was inactive: -0.148%.
Regarding `CSc1nn(CC(=O)Nc2ccc(C)cc2C)c(N)c1S(=O)(=O)c1ccc(Cl)cc1`, the call was inactive.
Still for that read-out and setting: the entry for `CCn1cc(C(=O)N(C)c2cc(C)ccc2C)c2cc(OC)c(OC)cc2c1=O` is “inactive”.
Turning to `COc1ccc(Br)cc1CNC(=O)C1CCN(c2nnc(-n3cccc3CNc3ccc(C)cc3)s2)CC1`, the “activity change, negative = inhibition” value was inactive: 4.24%.
As for `Cc1ccc(NS(=O)(=O)c2ccc3nc(-c4ccccc4)[nH]c3c2)cc1Cl`, the “activity change, negative = inhibition” value was inactive: -8%.
As to `COc1ccc(NS(=O)(=O)c2ccc3c(c2)CC(C)N3C(=O)C2CCC2)cc1OC` (configuration not stated), the compound was classed as inactive.
Turning to `CCOc1ccccc1NC(=O)C1CCCN(S(=O)(=O)c2cccs2)C1` (configuration not stated), the “activity change, negative = inhibition” value is inactive: 0.923%.
For the compound `COc1cc2c(C(=O)N3CCN(c4ccc(F)cc4)CC3)cn(CC(C)C)c(=O)c2cc1OC`, the call was inactive.
On to `COc1ccc(NC(=O)c2sc3nc4n(c(=O)c3c2C)CCC4)c(OC)c1`, for which the “activity change, negative = inhibition” value is inactive: -6.63%.
Still for that read-out and setting: for `CCCCOc1ccccc1NC(=O)CC1Sc2ccccc2NC1=O` (configuration not stated) the value was inactive: -9.2%.
Consider `COc1ccccc1Cc1nc2ccccc2nc1SCC(=O)N1CCCCC1`, for which the “activity change, negative = inhibition” value was inactive: 2.8%.
Regarding `COc1ccc(CCNC(=O)CCc2c(C)nc3cc(-c4ccc(Cl)cc4)nn3c2C)c(OC)c1`, the compound was called inactive.
In the case of `Cc1noc(/C=C/c2ccccc2F)c1S(=O)(=O)N1CCC(C(=O)NCc2ccco2)CC1`, the “activity change, negative = inhibition” value is inactive: -6.51%.
Same read-out and setting: for `CCOC(=O)N1CCN(c2ncc3c(n2)CC(c2ccc(OC)c(OC)c2)CC3=O)CC1` (configuration not stated) the value was inactive: 8.3%.
Turning to `Cc1cc(C)cc(N2C(=O)CSC23C(=O)N(CC(=O)NC2CCCCC2)c2ccccc23)c1` (configuration not stated), the compound was classed as inactive.
As to `CCOC(=O)c1ccccc1NC(=O)N1CCCn2nc(C)cc21`, the “activity change, negative = inhibition” value was inactive: 1.06%.
Still for that read-out and setting: for `Cc1ccccc1C(=O)Nc1nnc(S(=O)(=O)N2CCc3ccccc32)s1` the value was inactive: -2.54%.
The same measure, in the same setting: for `CC(=O)N1CCCc2cc(S(=O)(=O)N3CCC(C(=O)N(C)C4CCCCC4)CC3)ccc21` the value was inactive: 4.87%; for `CCc1ccc(NC(=O)Cn2c(=O)n(Cc3ccc(C)cc3)c(=O)c3cccnc32)cc1`, inactive: 1.16%.
In the case of `CNC(=O)C1CCN(C(=O)N2CC(C)Oc3ccc(Cl)cc32)CC1` (configuration not stated), the outcome was inactive.
In the case of `O=C(CCS(=O)(=O)c1cc(Br)cc2c1N(C(=O)C1CC1)CC2)N1CCN(c2ccccc2)CC1`, the “activity change, negative = inhibition” value was inactive: -28.4%.
As for `COc1ccc(OC)c(CCNC(=O)c2cnn(-c3ccccc3)c2-n2cccc2)c1`, the outcome was inactive.
Take `Cc1ccccc1Cn1nnc2c(=O)[nH]c(C3CCCN(C(=O)c4ccc(C(C)(C)C)cc4)C3)nc21` (configuration not stated): the “activity change, negative = inhibition” value is inactive: -6.74%.
Turning to `O=C(c1ccc2c(c1)N(Cc1cccc(Cl)c1)C(=O)c1ccccc1S2(=O)=O)N1CCCC1`, the compound was called inactive.
Regarding `Cc1nnc2c3ccccc3nc(N3CCN(c4ccccc4)CC3)n12`, the “activity change, negative = inhibition” value was inactive: 0.896%.
Regarding `CCOC(=O)C1CCCN(C(=O)c2ccccc2NC(=O)c2nsc3ccccc23)C1` (configuration not stated), the compound was called inactive.
For `CCOc1ccc(C2CC(=O)c3c([nH]c(C(=O)OCCOc4ccccc4)c3C)C2)cc1` (configuration not stated), the “activity change, negative = inhibition” value is inactive: -11.5%.
The same measure, in the same setting: for `O=C(CCc1ccccc1)N(Cc1cccnc1)c1nc2ccc(F)cc2s1` the value was inactive: -7.35%; for `CCOCCCNC(=O)C1CCCN(c2ncnc3onc(C)c23)C1` (configuration not stated), inactive: -1.7%.
Same read-out and setting: for `N#Cc1c(-c2ccccc2)cc(-c2ccccc2)nc1SCC(O)CS(=O)(=O)Cc1ccccc1` (configuration not stated) the value was inactive: 0.94%; for `O=C(Cn1cc(SCc2ccc(F)cc2)c2ccccc21)N1CCCCCC1`, inactive: -8.26%.
The same measure, in the same setting: the figure for `CCOc1ccc(NC(=O)c2cnn(-c3ccccc3)c2-n2cccc2)cc1` is inactive: 5.78%; for `CCN(CC)C(=O)CSc1nc2c(c(=O)n(C)c(=O)n2C)n1Cc1ccccc1` it is inactive: 2.87%.
As to `Cc1ccc2c(CNC3CCCC3)c(C(=O)O)n(Cc3ccc(F)cc3)c2c1`, the “activity change, negative = inhibition” value was inactive: 7.2%.
With `CN(C(=O)CSc1nc2ccccc2n1CC(=O)N(C)C1CCCCC1)c1ccccc1`, the “activity change, negative = inhibition” value is inactive: 6.05%.
For `CCOC(=O)C1CCCN(C(=O)c2ccc3c(c2)N(Cc2ccc(Cl)cc2)C(=O)c2ccccc2S3=O)C1` (configuration not stated), the compound was classed as inactive.
As to `CCCCNC(=O)CCn1c(=O)c2ccccc2n(Cc2cccc(Cl)c2)c1=O`, the “activity change, negative = inhibition” value was inactive: 7.08%.
As for `Cc1noc(/C=C/c2ccccc2F)c1S(=O)(=O)N1CCC(C(=O)Nc2ccc(C#N)cc2)CC1`, the result was inactive.
Regarding `Cc1cccc(NC(=O)CN2C(=O)CCn3nc(-c4cccn4C)cc32)c1C`, the “activity change, negative = inhibition” value was inactive: -2.69%.
With `COc1ccc(NC(=O)C2CCN(S(=O)(=O)c3cc(-c4noc(C)n4)ccc3C)CC2)cc1`, the “activity change, negative = inhibition” value was inactive: 2.49%.
The same measure, in the same setting: for `Cc1ccc(C)c(NC(=O)c2cc(S(=O)(=O)NCCc3ccccc3)ccc2F)c1` the value was inactive: 1.02%; for `O=C(O)c1ccc(O)c2ncc(N3CCOCC3)cc12`, inactive: 4.35%.
For the compound `CCOc1ccc(CNC(=O)CCn2c(=O)c3cccn3c3ccc(F)cc32)cc1`, the call was inactive.
With `CCCCN(CC)C(=O)C1CCCN(c2ncnc3c2nc2n3CCCCC2)C1` (configuration not stated), the “activity change, negative = inhibition” value is inactive: 7.26%.
As to `CCOC(=O)c1ccc(NC(=O)c2ccc(CN3C(=O)CCn4nc(C)cc43)cc2)cc1`, the compound was classed as inactive.
On to `O=C(CSc1nnc2scc(-c3ccccc3)n12)Nc1ccc(Cl)cc1`, for which the “activity change, negative = inhibition” value is inactive: -2.43%.
In the case of `O=C(Nc1cccc(C(F)(F)F)c1)Nc1cccs1`, the compound was classed as inactive.
As to `Cc1ccccc1C(=O)N1CCC(N2CCN(Cc3ccc(F)cc3)C(=O)C2=O)CC1`, the “activity change, negative = inhibition” value is inactive: 5.16%.
Still for that read-out and setting: the figure for `COc1cc2ncnc(-n3nc(-c4ccccn4)nc3N)c2cc1OC` is inactive: 4.6%.
